For 32 variants, cAMP reporter score and surface expression score results are on record in the GPR68 mutational scans of Howard et al. (2025).

The labels stand for the following.
B1: GPR68, Q15743 (parent)
chain: MGNITADNSSMSCTIDHTIHQTLAPVVYVTVLVVGFPANCLSLYFGYLQIKARNELGVYLCNLTVADLFYICSLPFWLQYVLQHDNWSHGDLSCQVCGILLYENIYISVGFLCCISVDRYLAVAHPFRFHQFRTLKAAVGVSVVIWAKELLTSIYFLMHEEVIEDENQHRVCFEHYPIQAWQRAINYYRFLVGFLFPICLLLASYQGILRAVRRSHGTQKSRKDQIQRLVLSTVVIFLACFLPYHVLLLVRSVWEASCDFAKGVFNAYHFSLLLTSFNCVADPVLYCFVSETTHRDLARLRGACLAFLTCSRTGRAREAYPLGAPEASGKSGAQGEEPELLTKLHPAFQTPNSPGSGGFPTGRLA

The least precise scores are not listed. Not listed are two conditions whose scores span a narrow range. In variant names, del marks residues removed and ins residues inserted between the two positions. For part of these data: The data file names ogerin without a concentration.

The variants in data set [1] derive from B1. Description: cAMP reporter score (Enrich2 score, wild type = 0); higher = more signal; HEK293T, FACS bins.
Data set [2] covers variants of B1. In words: surface expression score (Enrich2 score, wild type = 0); higher = more signal; HEK293T, FACS bins.

With A6_D7del, the cAMP reporter score stood at 1.33 in data set [1] (pH 5.5); 1.1 in data set [1] (pH 6); 1.18 in data set [1] (pH 6, modulator: ogerin); 1.54 in data set [1] (pH 6.5, modulator: ogerin). Moreover, the surface expression score in data set [2] was 0.986.

For A6del, the cAMP reporter score was 0.056 in data set [1] (pH 5.5); 0.238 in data set [1] (pH 6); 0.432 in data set [1] (pH 6, modulator: ogerin); -0.057 in data set [1] (pH 6.5, modulator: ogerin). For the same variant, the surface expression score in data set [2] is -0.458.

Regarding D7del, the cAMP reporter score in data set [1] (pH 5.5) was -0.282; in data set [1] (pH 6) it was -1.25; in data set [1] (pH 6, modulator: ogerin), -0.787; in data set [1] (pH 6.5, modulator: ogerin), -0.075. Also, in data set [2], the surface expression score is -0.544.

Consider D7_N8insG, for which the cAMP reporter score in data set [1] (pH 5.5) came out at 0.864; in data set [1] (pH 6), 1.57; in data set [1] (pH 6, modulator: ogerin) it was 1.27; in data set [1] (pH 6.5, modulator: ogerin), 1.29. In data set [2], the surface expression score came to 0.765.

As for D7_S9del, the cAMP reporter score in data set [1] (pH 5.5) was 0.083; in data set [1] (pH 6), -0.052; in data set [1] (pH 6, modulator: ogerin), -0.053; in data set [1] (pH 6.5, modulator: ogerin) it was -0.335. For the same variant, the surface expression score in data set [2] was -0.854.

As for A6_D7insG, the cAMP reporter score in data set [1] (pH 5.5) stood at 0.796; in data set [1] (pH 6) it was 0.827; in data set [1] (pH 6, modulator: ogerin), 0.801; in data set [1] (pH 6.5, modulator: ogerin), 0.836. In addition, in data set [2], the surface expression score turned out to be 0.461.

As for I4_T5insG, the cAMP reporter score in data set [1] (pH 5.5) was 0.626; in data set [1] (pH 6, modulator: ogerin), -0.251; in data set [1] (pH 6.5, modulator: ogerin) it was 0.262. Moreover, the surface expression score in data set [2] is -0.402.

For N3T, the cAMP reporter score is -0.623 in data set [1] (pH 5.5); -1.02 in data set [1] (pH 6, modulator: ogerin); 0.522 in data set [1] (pH 6.5, modulator: ogerin). In data set [2], the surface expression score is -1.3.

With N3Q, the cAMP reporter score in data set [1] (pH 5.5) is -0.247; in data set [1] (pH 6), -0.466; in data set [1] (pH 6, modulator: ogerin) it was -0.175; in data set [1] (pH 6.5, modulator: ogerin), -0.718. Moreover, the surface expression score in data set [2] is -0.82.

Take N3M: the cAMP reporter score in data set [1] (pH 5.5) is 0.011; in data set [1] (pH 6) it was -0.745; in data set [1] (pH 6, modulator: ogerin), -0.173; in data set [1] (pH 6.5, modulator: ogerin) it was -0.431. Also, the surface expression score in data set [2] was -0.966.

In the case of N3L, the cAMP reporter score in data set [1] (pH 5.5) was -0.352; in data set [1] (pH 6) it was -1.62; in data set [1] (pH 6, modulator: ogerin) it was -0.464; in data set [1] (pH 6.5, modulator: ogerin), -0.332. Besides, the surface expression score in data set [2] is -1.2.

N3V: the cAMP reporter score in data set [1] (pH 5.5) is 0.413; in data set [1] (pH 6, modulator: ogerin), 0.124; in data set [1] (pH 6.5, modulator: ogerin), -0.725. For the same variant, in data set [2], the surface expression score was -0.238.

Consider N3S, for which the cAMP reporter score in data set [1] (pH 5.5) was -1.3; in data set [1] (pH 6, modulator: ogerin) it was -1.17; in data set [1] (pH 6.5, modulator: ogerin) it was -1.17. The surface expression score in data set [2] is -0.922.

For the variant N3I, the cAMP reporter score was -0.717 in data set [1] (pH 5.5); -1.42 in data set [1] (pH 6); -0.951 in data set [1] (pH 6, modulator: ogerin); -1.29 in data set [1] (pH 6.5, modulator: ogerin). The surface expression score in data set [2] is -0.548.

For N3G, the cAMP reporter score was 0.591 in data set [1] (pH 5.5); 0.417 in data set [1] (pH 6); 0.514 in data set [1] (pH 6, modulator: ogerin); -0.095 in data set [1] (pH 6.5, modulator: ogerin). The surface expression score in data set [2] is -0.286.

Turning to N3K, the cAMP reporter score in data set [1] (pH 5.5) is -0.451; in data set [1] (pH 6, modulator: ogerin), -0.488; in data set [1] (pH 6.5, modulator: ogerin) it was -0.448. Besides, the surface expression score in data set [2] is -1.02.

Consider N3Y, for which the cAMP reporter score in data set [1] (pH 5.5) was 0.065; in data set [1] (pH 6), -1.01; in data set [1] (pH 6, modulator: ogerin), 0.241; in data set [1] (pH 6.5, modulator: ogerin), -0.512. The surface expression score in data set [2] was -0.728.

Take N3E: the cAMP reporter score in data set [1] (pH 5.5) was 0.406; in data set [1] (pH 6), -0.911; in data set [1] (pH 6, modulator: ogerin), 0.21; in data set [1] (pH 6.5, modulator: ogerin), 0.345. For the same variant, in data set [2], the surface expression score is 0.052.

As for N3R, the cAMP reporter score in data set [1] (pH 5.5) was -0.004; in data set [1] (pH 6), -0.631; in data set [1] (pH 6, modulator: ogerin) it was -0.084; in data set [1] (pH 6.5, modulator: ogerin) it was -0.936. In data set [2], the surface expression score was -0.987.

N3D: the cAMP reporter score in data set [1] (pH 5.5) is -0.08; in data set [1] (pH 6) it was -0.974; in data set [1] (pH 6, modulator: ogerin), -0.559; in data set [1] (pH 6.5, modulator: ogerin), -0.473. Also, the surface expression score in data set [2] is -0.707.

With N3W, the cAMP reporter score in data set [1] (pH 5.5) is 0.201; in data set [1] (pH 6), -0.948; in data set [1] (pH 6, modulator: ogerin), -0.449; in data set [1] (pH 6.5, modulator: ogerin), -0.917. The surface expression score in data set [2] was -0.677.

Consider N3P, for which the cAMP reporter score in data set [1] (pH 5.5) was -0.781; in data set [1] (pH 6) it was 0.112; in data set [1] (pH 6, modulator: ogerin), -0.378; in data set [1] (pH 6.5, modulator: ogerin) it was -0.843. For the same variant, the surface expression score in data set [2] was -0.339.

As to N3H, the cAMP reporter score in data set [1] (pH 5.5) was 0.307; in data set [1] (pH 6), -0.434; in data set [1] (pH 6, modulator: ogerin) it was 0.669; in data set [1] (pH 6.5, modulator: ogerin) it was -0.759. Also, the surface expression score in data set [2] is -0.739.

Take N3F: the cAMP reporter score in data set [1] (pH 5.5) is 0.946; in data set [1] (pH 6) it was -0.046; in data set [1] (pH 6, modulator: ogerin) it was 0.292; in data set [1] (pH 6.5, modulator: ogerin), 0.666.

In the case of D7_N8insGS, the cAMP reporter score stood at 0.317 in data set [1] (pH 5.5); 1.01 in data set [1] (pH 6); 0.447 in data set [1] (pH 6, modulator: ogerin); 0.102 in data set [1] (pH 6.5, modulator: ogerin). The surface expression score in data set [2] was 0.549.

For N3_I4insGS, the cAMP reporter score is -1.26 in data set [1] (pH 5.5); -0.045 in data set [1] (pH 6); -1.37 in data set [1] (pH 6, modulator: ogerin); -0.18 in data set [1] (pH 6.5, modulator: ogerin). Further, the surface expression score in data set [2] was -1.46.

For I4_T5insGSG, the cAMP reporter score in data set [1] (pH 5.5) is -0.92; in data set [1] (pH 6), 0.078; in data set [1] (pH 6, modulator: ogerin), -0.679; in data set [1] (pH 6.5, modulator: ogerin), -0.783. Further, the surface expression score in data set [2] was -0.527.

Turning to A6_D7insGS, the cAMP reporter score is -0.167 in data set [1] (pH 5.5); -0.798 in data set [1] (pH 6); 0.033 in data set [1] (pH 6, modulator: ogerin); -0.218 in data set [1] (pH 6.5, modulator: ogerin). Also, the surface expression score in data set [2] is -0.118.

As to I4del, the cAMP reporter score in data set [1] (pH 5.5) is -1.03; in data set [1] (pH 6), -0.738; in data set [1] (pH 6, modulator: ogerin), -0.771; in data set [1] (pH 6.5, modulator: ogerin), -0.111. The surface expression score in data set [2] is -2.12.

In the case of T5_A6insG, the cAMP reporter score is -0.184 in data set [1] (pH 5.5); 0.078 in data set [1] (pH 6, modulator: ogerin); 0.657 in data set [1] (pH 6.5, modulator: ogerin). In data set [2], the surface expression score amounted to 0.286.

For N3_I4insG, the cAMP reporter score in data set [1] (pH 5.5) is -0.315; in data set [1] (pH 6), 0.07; in data set [1] (pH 6, modulator: ogerin), -0.628; in data set [1] (pH 6.5, modulator: ogerin), -0.36. The surface expression score in data set [2] is -1.08.

For N8H, the cAMP reporter score was -0.602 in data set [1] (pH 5.5); 0.218 in data set [1] (pH 6); -0.743 in data set [1] (pH 6, modulator: ogerin); -0.492 in data set [1] (pH 6.5, modulator: ogerin). For the same variant, the surface expression score in data set [2] was -1.68.
